Results as given in the supplement of paper PMC6657886.
MIC of clinical N. gonorrhoeae isolates (2015-2017) by agar dilution on GC agar with 1% IsoVitaleX (ranges not stated); higher = less susceptible. No active / inactive call per row; the paper counts benzylpenicillin above 1 and ceftriaxone above 0.125 mg/L as resistant (EUCAST). The method is stated for benzylpenicillin and ceftriaxone and assumed for the other drugs. '<=' is inferred from pile-ups at the end values. Isolates are numbered anew.

Experiments:
Experiment in all cases: Agar dilution on enriched GC agar; resistance determinants by microarray.
tetracycline = compound: CN(C)[C@@H]1C(O)=C(C(N)=O)C(=O)[C@@]2(O)C(O)=C3C(=O)c4c(O)cccc4[C@@](C)(O)[C@H]3C[C@@H]12 [tetracycline]
ceftriaxone = compound: CO/N=C(\C(=O)N[C@@H]1C(=O)N2C(C(=O)O)=C(CSc3nc(=O)c(O)nn3C)CS[C@H]12)c1csc(N)n1 [ceftriaxone]
azithromycin = compound: CC[C@H]1OC(=O)[C@H](C)[C@@H](O[C@H]2C[C@@](C)(OC)[C@@H](O)[C@H](C)O2)[C@H](C)[C@@H](O[C@@H]2O[C@H](C)C[C@H](N(C)C)[C@H]2O)[C@](C)(O)C[C@@H](C)CN(C)[C@H](C)[C@@H](O)[C@]1(C)O [azithromycin]
spectinomycin = compound: CN[C@@H]1[C@H](O)[C@H](NC)[C@H]2O[C@@]3(O)C(=O)C[C@@H](C)O[C@H]3O[C@@H]2[C@H]1O [spectinomycin]
benzylpenicillin = compound: CC1(C)S[C@@H]2[C@H](NC(=O)Cc3ccccc3)C(=O)N2[C@H]1C(=O)O [benzylpenicillin]

Neisseria gonorrhoeae isolate 121 (blaTEM plasmid: no, gyrA: Phe91, Gly95, mtrR promoter: wild type, parC: Arg87, Glu91, penA: ins345Asp, ponA: Pro421, porB: wild type, rpsJ: Met57, tetM plasmid: no)
MIC (tetracycline): 0.5 µg/mL | MIC (ceftriaxone): 0.004 µg/mL | MIC (azithromycin): 0.015 µg/mL | MIC (spectinomycin): 32 µg/mL | MIC (benzylpenicillin): 0.25 µg/mL

Neisseria gonorrhoeae isolate 299 (blaTEM plasmid: no, gyrA: Phe91, Asn95, mtrR promoter: -35delA, parC: Arg87, Glu91, penA: ins345Asp, ponA: Pro421, porB: wild type, rpsJ: Met57, tetM plasmid: no)
MIC (tetracycline): 1 µg/mL | MIC (ceftriaxone): 0.004 µg/mL | MIC (azithromycin): 0.06 µg/mL | MIC (spectinomycin): 32 µg/mL | MIC (benzylpenicillin): 0.5 µg/mL

Neisseria gonorrhoeae isolate 100 (blaTEM plasmid: no, gyrA: Thr91, Gly95, mtrR promoter: wild type, parC: wild type, penA: wild type, ponA: wild type, porB: Gly120, Ser121, rpsJ: Met57, tetM plasmid: no)
MIC (tetracycline): 0.5 µg/mL | MIC (ceftriaxone): ≤ 0.002 µg/mL | MIC (azithromycin): 0.06 µg/mL | MIC (spectinomycin): 16 µg/mL | MIC (benzylpenicillin): 0.5 µg/mL

Neisseria gonorrhoeae isolate 269 (blaTEM plasmid: no, gyrA: Thr91, Gly95, mtrR promoter: wild type, parC: wild type, penA: wild type, ponA: wild type, porB: wild type, rpsJ: wild type, tetM plasmid: no)
MIC (tetracycline): 0.12 µg/mL | MIC (ceftriaxone): ≤ 0.002 µg/mL | MIC (azithromycin): 0.03 µg/mL | MIC (spectinomycin): 16 µg/mL | MIC (benzylpenicillin): 0.12 µg/mL

Neisseria gonorrhoeae isolate 377 (blaTEM plasmid: no, gyrA: wild type, mtrR promoter: wild type, parC: wild type, penA: wild type, ponA: wild type, porB: wild type, rpsJ: wild type, tetM plasmid: no)
MIC (tetracycline): 0.06 µg/mL | MIC (ceftriaxone): ≤ 0.002 µg/mL | MIC (azithromycin): 0.015 µg/mL | MIC (spectinomycin): 32 µg/mL | MIC (benzylpenicillin): ≤ 0.015 µg/mL

Neisseria gonorrhoeae isolate 324 (blaTEM plasmid: no, gyrA: Phe91, Asn95, mtrR promoter: -35delA, parC: Arg87, Glu91, penA: ins345Asp, ponA: Pro421, porB: wild type, rpsJ: Met57, tetM plasmid: no)
MIC (tetracycline): 1 µg/mL | MIC (ceftriaxone): 0.015 µg/mL | MIC (azithromycin): 0.5 µg/mL | MIC (spectinomycin): 16 µg/mL | MIC (benzylpenicillin): 0.5 µg/mL

Neisseria gonorrhoeae isolate 309 (blaTEM plasmid: no, gyrA: wild type, mtrR promoter: wild type, parC: wild type, penA: ins345Asp, ponA: wild type, porB: wild type, rpsJ: wild type, tetM plasmid: no)
MIC (tetracycline): 0.12 µg/mL | MIC (ceftriaxone): ≤ 0.002 µg/mL | MIC (azithromycin): 0.06 µg/mL | MIC (spectinomycin): 16 µg/mL | MIC (benzylpenicillin): 0.06 µg/mL

Neisseria gonorrhoeae isolate 443 (blaTEM plasmid: no, gyrA: Phe91, Asn95, mtrR promoter: -35delA, parC: Arg87, Glu91, penA: ins345Asp, ponA: Pro421, porB: Lys120, Gly121, rpsJ: Met57, tetM plasmid: no)
MIC (tetracycline): 2 µg/mL | MIC (ceftriaxone): 0.015 µg/mL | MIC (azithromycin): 0.5 µg/mL | MIC (spectinomycin): 16 µg/mL | MIC (benzylpenicillin): 0.5 µg/mL

Neisseria gonorrhoeae isolate 307 (blaTEM plasmid: no, gyrA: Phe91, Asn95, mtrR promoter: wild type, parC: Arg87, Glu91, penA: ins345Asp, ponA: wild type, porB: Asp120, Gly121, rpsJ: Met57, tetM plasmid: no)
MIC (tetracycline): 0.5 µg/mL | MIC (ceftriaxone): ≤ 0.002 µg/mL | MIC (azithromycin): 0.12 µg/mL | MIC (spectinomycin): 32 µg/mL | MIC (benzylpenicillin): ≤ 0.015 µg/mL

Neisseria gonorrhoeae isolate 412 (blaTEM plasmid: no, gyrA: Phe91, Gly95, mtrR promoter: -35delA, parC: Arg87, Glu91, penA: ins345Asp, ponA: Pro421, porB: wild type, rpsJ: Met57, tetM plasmid: no)
MIC (tetracycline): 0.5 µg/mL | MIC (ceftriaxone): 0.008 µg/mL | MIC (azithromycin): 0.25 µg/mL | MIC (spectinomycin): 16 µg/mL | MIC (benzylpenicillin): 0.25 µg/mL

Neisseria gonorrhoeae isolate 410 (blaTEM plasmid: no, gyrA: Thr91, Gly95, mtrR promoter: wild type, parC: wild type, penA: wild type, ponA: wild type, porB: wild type, rpsJ: wild type, tetM plasmid: no)
MIC (tetracycline): 1 µg/mL | MIC (ceftriaxone): ≤ 0.002 µg/mL | MIC (azithromycin): 0.06 µg/mL | MIC (spectinomycin): 32 µg/mL | MIC (benzylpenicillin): 0.03 µg/mL

Neisseria gonorrhoeae isolate 425 (blaTEM plasmid: no, gyrA: wild type, mtrR promoter: wild type, parC: wild type, penA: wild type, ponA: wild type, porB: wild type, rpsJ: wild type, tetM plasmid: no)
MIC (tetracycline): 0.5 µg/mL | MIC (ceftriaxone): ≤ 0.002 µg/mL | MIC (azithromycin): 0.25 µg/mL | MIC (spectinomycin): 16 µg/mL | MIC (benzylpenicillin): ≤ 0.015 µg/mL

Neisseria gonorrhoeae isolate 334 (blaTEM plasmid: no, gyrA: wild type, mtrR promoter: wild type, parC: wild type, penA: ins345Asp, ponA: Pro421, porB: wild type, rpsJ: wild type, tetM plasmid: no)
MIC (tetracycline): 0.25 µg/mL | MIC (ceftriaxone): 0.008 µg/mL | MIC (azithromycin): 0.03 µg/mL | MIC (spectinomycin): 8 µg/mL | MIC (benzylpenicillin): 0.06 µg/mL

Neisseria gonorrhoeae isolate 205 (blaTEM plasmid: no, gyrA: Phe91, Gly95, mtrR promoter: wild type, parC: Arg87, Glu91, penA: ins345Asp, ponA: Pro421, porB: wild type, rpsJ: Met57, tetM plasmid: no)
MIC (tetracycline): 0.25 µg/mL | MIC (ceftriaxone): ≤ 0.002 µg/mL | MIC (azithromycin): 0.03 µg/mL | MIC (spectinomycin): 8 µg/mL | MIC (benzylpenicillin): 0.03 µg/mL

Neisseria gonorrhoeae isolate 185 (blaTEM plasmid: no, gyrA: Ser91, Asn95, mtrR promoter: wild type, parC: wild type, penA: ins345Asp, ponA: Pro421, porB: wild type, rpsJ: Met57, tetM plasmid: no)
MIC (tetracycline): 0.5 µg/mL | MIC (ceftriaxone): 0.008 µg/mL | MIC (azithromycin): 0.06 µg/mL | MIC (spectinomycin): 8 µg/mL | MIC (benzylpenicillin): 0.06 µg/mL

Neisseria gonorrhoeae isolate 481 (blaTEM plasmid: no, gyrA: Phe91, Gly95, mtrR promoter: wild type, parC: Arg87, Glu91, penA: ins345Asp, ponA: wild type, porB: wild type, rpsJ: Met57, tetM plasmid: no)
MIC (tetracycline): 1 µg/mL | MIC (ceftriaxone): 0.004 µg/mL | MIC (azithromycin): 0.25 µg/mL | MIC (spectinomycin): 16 µg/mL | MIC (benzylpenicillin): 0.25 µg/mL

Neisseria gonorrhoeae isolate 291 (blaTEM plasmid: yes, gyrA: Phe91, Asp95, mtrR promoter: wild type, parC: Arg87, Lys91, penA: ins345Asp, ponA: wild type, porB: wild type, rpsJ: Met57, tetM plasmid: yes)
MIC (tetracycline): 32 µg/mL | MIC (ceftriaxone): ≤ 0.002 µg/mL | MIC (azithromycin): 0.06 µg/mL | MIC (spectinomycin): 16 µg/mL | MIC (benzylpenicillin): 16 µg/mL

Neisseria gonorrhoeae isolate 456 (blaTEM plasmid: no, gyrA: wild type, mtrR promoter: wild type, parC: wild type, penA: ins345Asp, ponA: wild type, porB: wild type, rpsJ: wild type, tetM plasmid: no)
MIC (tetracycline): 0.25 µg/mL | MIC (ceftriaxone): ≤ 0.002 µg/mL | MIC (azithromycin): 0.03 µg/mL | MIC (spectinomycin): 16 µg/mL | MIC (benzylpenicillin): 0.06 µg/mL

Neisseria gonorrhoeae isolate 301 (blaTEM plasmid: no, gyrA: wild type, mtrR promoter: wild type, parC: wild type, penA: wild type, ponA: wild type, porB: wild type, rpsJ: wild type, tetM plasmid: no)
MIC (tetracycline): 0.25 µg/mL | MIC (ceftriaxone): ≤ 0.002 µg/mL | MIC (azithromycin): 0.12 µg/mL | MIC (spectinomycin): 16 µg/mL | MIC (benzylpenicillin): ≤ 0.015 µg/mL

Neisseria gonorrhoeae isolate 266 (blaTEM plasmid: no, gyrA: wild type, mtrR promoter: wild type, parC: wild type, penA: ins345Asp, ponA: wild type, porB: wild type, rpsJ: Met57, tetM plasmid: no)
MIC (tetracycline): 0.5 µg/mL | MIC (ceftriaxone): ≤ 0.002 µg/mL | MIC (azithromycin): 0.015 µg/mL | MIC (spectinomycin): 4 µg/mL | MIC (benzylpenicillin): 0.25 µg/mL

Neisseria gonorrhoeae isolate 151 (blaTEM plasmid: no, gyrA: Phe91, Asp95, mtrR promoter: -35delA, parC: wild type, penA: ins345Asp, ponA: Pro421, porB: Asn120, Asp121, rpsJ: Met57, tetM plasmid: no)
MIC (tetracycline): 4 µg/mL | MIC (ceftriaxone): 0.004 µg/mL | MIC (azithromycin): 0.12 µg/mL | MIC (spectinomycin): 16 µg/mL | MIC (benzylpenicillin): 0.12 µg/mL

Neisseria gonorrhoeae isolate 82 (blaTEM plasmid: no, gyrA: wild type, mtrR promoter: wild type, parC: wild type, penA: ins345Asp, ponA: wild type, porB: wild type, rpsJ: wild type, tetM plasmid: no)
MIC (tetracycline): 0.06 µg/mL | MIC (ceftriaxone): 0.001 µg/mL | MIC (azithromycin): 0.015 µg/mL | MIC (spectinomycin): 32 µg/mL | MIC (benzylpenicillin): 0.12 µg/mL

Neisseria gonorrhoeae isolate 35 (blaTEM plasmid: no, gyrA: wild type, mtrR promoter: wild type, parC: wild type, penA: ins345Asp, ponA: wild type, porB: wild type, rpsJ: wild type, tetM plasmid: no)
MIC (tetracycline): 0.25 µg/mL | MIC (ceftriaxone): ≤ 0.002 µg/mL | MIC (azithromycin): 0.03 µg/mL | MIC (spectinomycin): 8 µg/mL | MIC (benzylpenicillin): ≤ 0.015 µg/mL

Neisseria gonorrhoeae isolate 149 (blaTEM plasmid: no, gyrA: wild type, mtrR promoter: wild type, parC: wild type, penA: ins345Asp, ponA: wild type, porB: wild type, rpsJ: wild type, tetM plasmid: no)
MIC (tetracycline): 0.25 µg/mL | MIC (ceftriaxone): ≤ 0.002 µg/mL | MIC (azithromycin): 0.03 µg/mL | MIC (spectinomycin): 32 µg/mL | MIC (benzylpenicillin): 0.06 µg/mL

Neisseria gonorrhoeae isolate 193 (blaTEM plasmid: no, gyrA: wild type, mtrR promoter: wild type, parC: wild type, penA: wild type, ponA: wild type, porB: wild type, rpsJ: wild type, tetM plasmid: no)
MIC (tetracycline): 0.25 µg/mL | MIC (ceftriaxone): ≤ 0.002 µg/mL | MIC (azithromycin): 0.06 µg/mL | MIC (spectinomycin): 32 µg/mL | MIC (benzylpenicillin): 0.03 µg/mL
